Source: PMC7501263
Results are given in words; binding and its absence hold for the method and conditions named. Binding seen in cells or lysates may run through a third protein. Some binding calls cover weakened binding; strength is not graded here. Sequences can lack the tags named with a protein.

Sequences of proteins named here, by UniProt entry; tags and fusion partners are left off. Residues count along the entry.
UniProt Q99K41, residues 22-1017: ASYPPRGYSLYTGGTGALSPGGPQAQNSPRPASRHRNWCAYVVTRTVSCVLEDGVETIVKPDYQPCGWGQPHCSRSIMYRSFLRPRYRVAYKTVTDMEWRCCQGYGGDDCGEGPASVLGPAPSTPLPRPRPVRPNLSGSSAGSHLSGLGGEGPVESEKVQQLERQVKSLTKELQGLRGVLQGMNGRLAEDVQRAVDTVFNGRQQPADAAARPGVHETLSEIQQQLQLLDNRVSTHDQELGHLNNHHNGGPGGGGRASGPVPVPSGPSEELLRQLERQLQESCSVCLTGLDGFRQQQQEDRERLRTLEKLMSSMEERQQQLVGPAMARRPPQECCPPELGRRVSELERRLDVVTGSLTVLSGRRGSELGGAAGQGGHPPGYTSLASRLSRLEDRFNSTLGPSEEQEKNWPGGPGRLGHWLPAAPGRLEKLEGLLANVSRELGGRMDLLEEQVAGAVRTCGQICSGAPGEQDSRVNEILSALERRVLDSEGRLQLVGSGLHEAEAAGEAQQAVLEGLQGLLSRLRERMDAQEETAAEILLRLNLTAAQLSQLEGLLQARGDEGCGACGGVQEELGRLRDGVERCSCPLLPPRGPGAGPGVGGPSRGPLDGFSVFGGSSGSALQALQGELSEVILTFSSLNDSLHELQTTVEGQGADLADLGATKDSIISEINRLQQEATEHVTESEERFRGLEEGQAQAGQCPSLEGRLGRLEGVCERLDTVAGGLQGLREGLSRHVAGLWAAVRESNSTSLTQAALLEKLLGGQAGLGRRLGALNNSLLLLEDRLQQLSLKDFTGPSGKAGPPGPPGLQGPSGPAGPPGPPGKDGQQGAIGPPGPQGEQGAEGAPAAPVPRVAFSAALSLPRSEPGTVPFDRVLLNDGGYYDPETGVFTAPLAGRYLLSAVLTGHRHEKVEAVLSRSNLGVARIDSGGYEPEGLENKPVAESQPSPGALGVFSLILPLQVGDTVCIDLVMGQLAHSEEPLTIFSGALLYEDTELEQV
UniProt Q8K482, residues 34-1074: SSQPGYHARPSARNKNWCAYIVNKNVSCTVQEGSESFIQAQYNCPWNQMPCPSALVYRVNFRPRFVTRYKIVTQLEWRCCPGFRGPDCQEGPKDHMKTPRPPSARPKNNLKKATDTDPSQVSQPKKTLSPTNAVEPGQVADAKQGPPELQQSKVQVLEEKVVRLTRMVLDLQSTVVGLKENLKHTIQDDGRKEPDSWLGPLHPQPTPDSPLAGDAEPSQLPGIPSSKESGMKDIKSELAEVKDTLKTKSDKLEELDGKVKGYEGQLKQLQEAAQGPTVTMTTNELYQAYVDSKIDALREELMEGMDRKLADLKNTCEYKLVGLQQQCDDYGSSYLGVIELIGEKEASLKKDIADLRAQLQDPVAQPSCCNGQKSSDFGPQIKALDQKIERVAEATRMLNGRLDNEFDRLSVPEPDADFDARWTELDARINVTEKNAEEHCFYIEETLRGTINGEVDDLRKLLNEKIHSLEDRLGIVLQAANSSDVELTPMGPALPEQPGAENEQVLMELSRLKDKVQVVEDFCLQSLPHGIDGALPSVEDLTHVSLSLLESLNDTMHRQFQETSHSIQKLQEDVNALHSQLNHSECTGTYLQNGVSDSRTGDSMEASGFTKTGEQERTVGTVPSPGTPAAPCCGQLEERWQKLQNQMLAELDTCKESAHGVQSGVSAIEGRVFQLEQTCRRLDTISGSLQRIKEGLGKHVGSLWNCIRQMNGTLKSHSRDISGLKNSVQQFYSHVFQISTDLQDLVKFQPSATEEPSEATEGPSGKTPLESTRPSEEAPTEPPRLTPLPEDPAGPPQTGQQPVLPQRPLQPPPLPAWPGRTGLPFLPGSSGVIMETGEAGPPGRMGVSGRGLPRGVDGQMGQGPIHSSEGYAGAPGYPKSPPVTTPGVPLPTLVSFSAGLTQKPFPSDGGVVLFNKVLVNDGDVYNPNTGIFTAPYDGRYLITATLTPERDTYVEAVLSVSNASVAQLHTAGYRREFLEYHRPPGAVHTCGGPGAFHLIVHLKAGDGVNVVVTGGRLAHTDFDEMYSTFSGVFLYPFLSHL

T1: Recombinant murine C-terminally 2xStrepII tagged full length fibulin-2 (murine) (UniProt P37889)
T1 sequence: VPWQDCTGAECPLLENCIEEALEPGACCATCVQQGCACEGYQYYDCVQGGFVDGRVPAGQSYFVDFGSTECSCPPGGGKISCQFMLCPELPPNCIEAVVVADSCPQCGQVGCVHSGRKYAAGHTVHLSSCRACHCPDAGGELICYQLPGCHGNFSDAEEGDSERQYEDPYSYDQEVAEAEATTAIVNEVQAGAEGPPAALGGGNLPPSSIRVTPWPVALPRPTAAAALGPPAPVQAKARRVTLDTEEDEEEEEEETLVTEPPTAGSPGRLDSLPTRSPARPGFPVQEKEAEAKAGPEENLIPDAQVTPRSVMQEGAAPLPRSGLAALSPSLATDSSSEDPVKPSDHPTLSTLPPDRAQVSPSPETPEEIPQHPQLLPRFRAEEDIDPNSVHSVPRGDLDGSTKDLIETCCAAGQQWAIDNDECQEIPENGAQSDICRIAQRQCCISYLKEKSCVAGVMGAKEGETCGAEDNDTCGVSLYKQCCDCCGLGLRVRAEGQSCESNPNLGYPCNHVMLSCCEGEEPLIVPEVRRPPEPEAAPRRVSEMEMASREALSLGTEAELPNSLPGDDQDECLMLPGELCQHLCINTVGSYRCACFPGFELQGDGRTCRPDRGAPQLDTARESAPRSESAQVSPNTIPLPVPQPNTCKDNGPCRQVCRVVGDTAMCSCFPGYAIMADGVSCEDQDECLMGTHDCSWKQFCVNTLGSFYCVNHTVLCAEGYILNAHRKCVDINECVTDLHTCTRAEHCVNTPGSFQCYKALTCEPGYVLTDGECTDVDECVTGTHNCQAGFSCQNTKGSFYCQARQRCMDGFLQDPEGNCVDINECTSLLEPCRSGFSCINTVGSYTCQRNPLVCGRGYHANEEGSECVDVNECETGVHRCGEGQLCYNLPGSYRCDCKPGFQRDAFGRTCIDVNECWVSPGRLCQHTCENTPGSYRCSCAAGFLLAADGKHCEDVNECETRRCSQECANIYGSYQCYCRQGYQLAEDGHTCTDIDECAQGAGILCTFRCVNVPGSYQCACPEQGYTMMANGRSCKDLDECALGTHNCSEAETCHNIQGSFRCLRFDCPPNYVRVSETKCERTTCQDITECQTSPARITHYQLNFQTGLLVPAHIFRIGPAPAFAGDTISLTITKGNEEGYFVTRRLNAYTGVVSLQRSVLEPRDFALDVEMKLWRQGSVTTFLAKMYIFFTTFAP

T2: Recombinant murine C-terminally 2xStrepII tagged full length nidogen-1 (murine) (UniProt P10493)
T2 sequence: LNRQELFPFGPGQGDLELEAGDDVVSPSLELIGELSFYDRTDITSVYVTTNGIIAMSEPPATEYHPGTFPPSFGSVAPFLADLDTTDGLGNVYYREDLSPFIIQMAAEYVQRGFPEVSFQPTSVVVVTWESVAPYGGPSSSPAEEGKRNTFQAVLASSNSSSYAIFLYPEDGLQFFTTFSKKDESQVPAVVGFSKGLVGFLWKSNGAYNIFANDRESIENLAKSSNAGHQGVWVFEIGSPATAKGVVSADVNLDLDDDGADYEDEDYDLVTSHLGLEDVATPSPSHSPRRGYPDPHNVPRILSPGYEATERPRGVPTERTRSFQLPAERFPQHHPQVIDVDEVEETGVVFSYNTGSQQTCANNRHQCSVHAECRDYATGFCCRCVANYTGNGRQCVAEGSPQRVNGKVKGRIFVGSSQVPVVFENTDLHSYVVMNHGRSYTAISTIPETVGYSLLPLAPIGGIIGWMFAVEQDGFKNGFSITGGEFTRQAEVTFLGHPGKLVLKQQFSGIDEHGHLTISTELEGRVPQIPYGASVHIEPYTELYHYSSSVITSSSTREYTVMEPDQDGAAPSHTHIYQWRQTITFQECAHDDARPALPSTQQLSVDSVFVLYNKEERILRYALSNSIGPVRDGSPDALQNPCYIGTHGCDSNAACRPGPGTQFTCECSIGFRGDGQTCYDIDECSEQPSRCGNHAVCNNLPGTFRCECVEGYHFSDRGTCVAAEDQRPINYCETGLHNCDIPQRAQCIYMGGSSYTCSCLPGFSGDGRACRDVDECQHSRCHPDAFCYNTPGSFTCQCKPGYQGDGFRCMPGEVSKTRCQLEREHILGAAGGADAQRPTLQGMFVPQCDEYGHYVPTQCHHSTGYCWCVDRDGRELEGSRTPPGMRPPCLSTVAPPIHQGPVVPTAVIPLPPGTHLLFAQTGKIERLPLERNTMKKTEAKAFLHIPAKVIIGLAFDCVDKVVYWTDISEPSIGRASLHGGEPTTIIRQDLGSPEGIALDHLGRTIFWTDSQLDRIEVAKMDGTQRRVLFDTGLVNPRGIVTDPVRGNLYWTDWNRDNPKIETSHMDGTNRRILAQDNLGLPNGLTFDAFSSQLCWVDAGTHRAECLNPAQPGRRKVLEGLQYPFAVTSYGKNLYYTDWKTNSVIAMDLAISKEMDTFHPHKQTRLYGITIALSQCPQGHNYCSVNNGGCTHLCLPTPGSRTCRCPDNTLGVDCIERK

T3: Recombinant murine C-terminally 2xStrepII tagged full length fibulin-1 (murine) (UniProt Q08879)
T3 sequence: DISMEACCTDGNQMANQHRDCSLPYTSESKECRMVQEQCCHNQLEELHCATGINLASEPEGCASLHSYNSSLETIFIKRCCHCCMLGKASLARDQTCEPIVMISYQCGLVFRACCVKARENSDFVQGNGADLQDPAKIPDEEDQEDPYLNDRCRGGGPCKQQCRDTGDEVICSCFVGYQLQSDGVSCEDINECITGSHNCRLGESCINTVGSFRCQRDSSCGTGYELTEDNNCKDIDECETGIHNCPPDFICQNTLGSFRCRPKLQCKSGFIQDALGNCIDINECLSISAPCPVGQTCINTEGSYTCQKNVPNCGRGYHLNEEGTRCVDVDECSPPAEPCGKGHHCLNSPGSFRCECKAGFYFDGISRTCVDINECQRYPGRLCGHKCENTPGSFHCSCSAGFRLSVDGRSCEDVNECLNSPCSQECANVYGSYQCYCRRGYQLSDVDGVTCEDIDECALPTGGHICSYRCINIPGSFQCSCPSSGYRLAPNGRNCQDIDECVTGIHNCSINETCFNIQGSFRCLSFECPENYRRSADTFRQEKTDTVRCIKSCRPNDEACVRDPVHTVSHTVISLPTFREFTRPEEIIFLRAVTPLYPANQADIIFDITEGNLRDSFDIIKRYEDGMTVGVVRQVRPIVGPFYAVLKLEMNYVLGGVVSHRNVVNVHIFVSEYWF


What was measured:
Assay in all cases: pull-down; purified recombinant Strep-tagged fibulin-1, fibulin-2 or nidogen-1 mixed with media of transfected HEK293 cells with HA-tagged EMILINs, 2 h at 4 °C; precipitation with Strep-Tactin Sepharose; washed with 50 mM Tris-HCl pH 7.5, 150 mM NaCl, 2 mM EDTA, 1% Triton X-100; western blot with anti-HA and anti-Strep; only the target purified
[1] = target: T1, Recombinant murine C-terminally 2xStrepII tagged full length fibulin-2 (murine)
[2] = target: T2, Recombinant murine C-terminally 2xStrepII tagged full length nidogen-1 (murine)
[3] = target: T3, Recombinant murine C-terminally 2xStrepII tagged full length fibulin-1 (murine)

| binding [1] | binding [2] | binding [3] | Molecule |
| --- | --- | --- | --- |
| binds | no binding | – | EMILIN-1, full length murine, C-terminal HA tag (from UniProt Q99K41 22-1017) |
| binds | no binding | – | EMILIN-2, full length murine, C-terminal HA tag (from UniProt Q8K482 34-1074) |
| binds | – | binds | EMILIN-3, full length murine, C-terminal HA tag (protein, UniProt P59900 22-758) KGTPLLARPAQPSASRYSLYTTGWRPRLRPGPHKSLCAYVVHRNVTCVLQEGAESYIKAEYRNCGWGPNCPSTVRYRTVFRPRYKIGYKTVTDLAWRCCPGLTGESCPEHLTDHGATPPHQEPEPQIPLGQLGPGPRPSPYSREAPRPRGRKGQGPFGERLEQRLSQAYGTLSGLVASHENPNRITGDSRAPVVPIGFGVIPEGLVAPEDRGRGPLIPPLSEILSKVTEVSNTLQTKVQLLDEVRGLALGHEAHLQRLREAPPSPLTSLALLEEYVDQRLQRLWGSLLDGFEQKLQGVQSECDLRVQEVRQQCEEGQAASQRLHQSLDGRELALRRELSQLGTQLQGLTLTGGGTCCSQLALISARVDSLERNLQAVTETQGGPGTLAADELARLSAAMLQGGVDGLLEGLETINGTENGARGCCLRMEVGGWGVGGFGSTLEQRVQSLEERLATLTGELSPESAIPDRSARPLVHSELAVLEQRLVSLETSCTPSTTTAILDNLVAEVKAWQSRSEALLHQVARHTALLQQLNGTVAEVQGQLAEGTGSSLQGEITLLKVNLNSVSKSLTGLSDSVSQYSDAFSAANTSLDERERRVEAEVHTIQEQISSQGSRLQAGHRQVLNLRGELEQLKAGMANVARGLSRCRDTAQELQHTVGHFDQRVAQVEGACERLGLLATHLNSLPTEQLRSREGLWGHIDKLNHTLAQHTQDIARLRDDLLDCRAQLAEVRPGRAD |
